In the supplement of paper PMC4967469:
By IC50 is meant the dose at which the fit gives 50% viability; fits outside the tested doses are given as limits. For AUC the same curve is integrated over the 256-fold range of doses and scaled to a fraction: 1 means no effect, lower means more sensitive. A top dose marked as inferred comes from the curve model; the source does not state it. For part of these data: Where an entry number is given, a second screen of the drug exists; the two often differ.

Legend:
Assay in all cases: Viability of human cancer cell lines after 72 h of drug (GDSC screen)
[1] = compound: CC(C)=CC[C@@H](O)C1=CC(=O)c2c(O)ccc(O)c2C1=O [Shikonin]; settings: top dose 16 µM; top dose inferred
Method: (§1)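 Human cancer cell lines in 384-well plates, medium with 10% serum, drug for 72 h over a 256-fold dose range (nine 2-fold or five 4-fold steps up to the top dose). Adherent lines were fixed and stained with the nucleic acid dye Syto60, suspension lines read with resazurin; signal relative to control wells, capped at 0 and 100%. One two-parameter sigmoid per drug and line, fitted in a mixed model over all curves with the slope shared within a line.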

[2] = compound: CCNc1cc(NC2CCC(O)CC2)nc(Nc2ccc3c(ccn3Cc3ccccc3)c2)n1 [CGP-082996 (CINK4)]; settings: top dose 5.12 µM; top dose inferred
Method: as §1

[3] = compound: CNC(=O)c1ccc(Nc2cc(Nc3ccccc3S(=O)(=O)C(C)C)c3cc[nH]c3n2)nc1 [HG-5-113-01]; settings: top dose 10 µM; top dose inferred
Method: as §1

[4] = compound: COc1cc(-c2nn([C@H]3CC[C@H](N4CCN(C(C)=O)CC4)CC3)c3ncnc(N)c23)ccc1NC(=O)c1cc2ccccc2n1C [A-770041]; settings: top dose 5.12 µM; top dose inferred
Method: as §1

[5] = compound: COc1cc(N2CCN(C)CC2)ccc1Nc1ncc2c(n1)N(C)c1ccccc1C(=O)N2C [XMD8-85]; settings: top dose 8 µM; top dose inferred
Method: as §1

[6] = compound: Cc1cc(N2CCOCC2)cc2[nH]c(-c3c(NC[C@@H](O)c4cccc(Cl)c4)cc[nH]c3=O)nc12 [BMS-536924]
Method: as §1

[7] = compound: Cc1ccc(-n2nc(C(C)(C)C)cc2NC(=O)Nc2ccc(OCCN3CCOCC3)c3ccccc23)cc1 [BIRB 0796]; settings: top dose 10 µM; top dose inferred
Method: as §1

[8] = compound: Cc1cccc(-c2[nH]c(C(C)(C)C)nc2-c2ccc3nccnc3c2)n1 [SB-525334]; settings: top dose 20 µM; top dose inferred
Method: as §1

[9] = compound: NC(=O)c1ccc(N(C(N)=O)c2c(F)cccc2F)nc1-c1ccc(F)cc1F [VX-702]; settings: top dose 2 µM; top dose inferred
Method: as §1

[10] = compound: O=C(c1cc(Cc2n[nH]c(=O)c3ccccc23)ccc1F)N1CCN(C(=O)C2CC2)CC1 [Olaparib]
Method: as §1

[11] = compound: O=C1NC(=O)c2c1c(-c1ccccc1Cl)cc1[nH]c3ccc(O)cc3c21 [Wee1 inhibitor 681640]; settings: top dose 2 µM; top dose inferred
Method: as §1

[12] = top dose 4 µM, screen: GDSC drug entry 1091, top dose inferred
[13] = top dose 5.12 µM, screen: GDSC drug entry 62
[14] = top dose 5 µM, screen: GDSC drug entry 1017, top dose inferred
[15] = top dose 10 µM, screen: GDSC drug entry 1495

8-MG-BA (glioma, adherent)
AUC [1]: 0.199
IC50 [1]: 0.138 µM
AUC [2]: 0.942
IC50 [2]: > 5.12 µM
AUC [3]: 0.731
IC50 [3]: 2.7 µM
AUC [4]: 0.83
IC50 [4]: 2.95 µM
AUC [5]: 0.902
IC50 [5]: > 8 µM
AUC [6, 12]: 0.902
IC50 [6, 12]: > 4 µM
AUC [6, 13]: 0.853
IC50 [6, 13]: 3.61 µM
AUC [7]: 0.983
IC50 [7]: > 10 µM
AUC [8]: 0.964
IC50 [8]: > 20 µM
AUC [9]: 0.988
IC50 [9]: > 2 µM
AUC [10, 14]: 0.902
IC50 [10, 14]: > 5 µM
AUC [10, 15]: 0.82
IC50 [10, 15]: 5.26 µM
AUC [11]: 0.847
IC50 [11]: 1.34 µM

A101D (melanoma, adherent)
AUC [1]: 0.077
IC50 [1]: < 0.0625 µM
AUC [2]: 0.834
IC50 [2]: 4.47 µM
AUC [3]: 0.808
IC50 [3]: 6.67 µM
AUC [4]: 0.773
IC50 [4]: 2.47 µM
AUC [5]: 0.846
IC50 [5]: 7.94 µM
AUC [6, 12]: 0.919
IC50 [6, 12]: > 4 µM
AUC [6, 13]: 0.759
IC50 [6, 13]: 2.18 µM
AUC [7]: 0.976
IC50 [7]: > 10 µM
AUC [8]: 0.936
IC50 [8]: > 20 µM
AUC [9]: 0.834
IC50 [9]: 1.75 µM
AUC [10, 14]: 0.862
IC50 [10, 14]: > 5 µM
AUC [10, 15]: 0.939
IC50 [10, 15]: > 10 µM
AUC [11]: 0.975
IC50 [11]: > 2 µM

A253 (head and neck, adherent)
AUC [1]: 0.056
IC50 [1]: < 0.0625 µM
AUC [2]: 0.977
IC50 [2]: > 5.12 µM
AUC [3]: 0.774
IC50 [3]: 3.82 µM
AUC [4]: 0.97
IC50 [4]: > 5.12 µM
AUC [5]: 0.949
IC50 [5]: > 8 µM
AUC [6, 12]: 0.921
IC50 [6, 12]: > 4 µM
AUC [6, 13]: 0.964
IC50 [6, 13]: > 5.12 µM
AUC [7]: 0.982
IC50 [7]: > 10 µM
AUC [8]: 0.986
IC50 [8]: > 20 µM
AUC [9]: 0.988
IC50 [9]: > 2 µM
AUC [10, 14]: 0.989
IC50 [10, 14]: > 5 µM
AUC [10, 15]: 0.929
IC50 [10, 15]: > 10 µM
AUC [11]: 0.989
IC50 [11]: > 2 µM

A388 (skin, adherent)
AUC [1]: 0.503
IC50 [1]: 1.02 µM
AUC [2]: 0.918
IC50 [2]: > 5.12 µM
AUC [3]: 0.699
IC50 [3]: 2.48 µM
AUC [4]: 0.792
IC50 [4]: 2.7 µM
AUC [5]: 0.824
IC50 [5]: 5.73 µM
AUC [6, 12]: 0.981
IC50 [6, 12]: > 4 µM
AUC [6, 13]: 0.884
IC50 [6, 13]: > 5.12 µM
AUC [7]: 0.88
IC50 [7]: > 10 µM
AUC [8]: 0.972
IC50 [8]: > 20 µM
AUC [9]: 0.966
IC50 [9]: > 2 µM
AUC [10, 14]: 0.966
IC50 [10, 14]: > 5 µM
AUC [10, 15]: 0.96
IC50 [10, 15]: > 10 µM
AUC [11]: 0.982
IC50 [11]: > 2 µM

A498 (kidney, adherent)
AUC [1]: 0.237
IC50 [1]: 0.114 µM
AUC [2]: 0.898
IC50 [2]: > 5.12 µM
AUC [3]: 0.693
IC50 [3]: 2.89 µM
AUC [4]: 0.97
IC50 [4]: > 5.12 µM
AUC [5]: 0.81
IC50 [5]: 7.15 µM
AUC [6, 12]: 0.778
IC50 [6, 12]: 2.53 µM
AUC [6, 13]: 0.809
IC50 [6, 13]: 4.53 µM
AUC [7]: 0.979
IC50 [7]: > 10 µM
AUC [8]: 0.978
IC50 [8]: > 20 µM
AUC [9]: 0.979
IC50 [9]: > 2 µM
AUC [10, 14]: 0.965
IC50 [10, 14]: > 5 µM
AUC [10, 15]: 0.921
IC50 [10, 15]: > 10 µM
AUC [11]: 0.962
IC50 [11]: > 2 µM

ALL-PO (lymphoblastic leukaemia, suspension)
AUC [1]: 0.301
IC50 [1]: 0.267 µM
AUC [2]: 0.769
IC50 [2]: 2.05 µM
AUC [3]: 0.557
IC50 [3]: 0.903 µM
AUC [4]: 0.908
IC50 [4]: > 5.12 µM
AUC [5]: 0.809
IC50 [5]: 4.48 µM
AUC [6, 12]: 0.893
IC50 [6, 12]: > 4 µM
AUC [6, 13]: 0.533
IC50 [6, 13]: 0.396 µM
AUC [7]: 0.974
IC50 [7]: > 10 µM
AUC [8]: 0.939
IC50 [8]: > 20 µM
AUC [9]: 0.875
IC50 [9]: > 2 µM
AUC [10, 14]: 0.867
IC50 [10, 14]: 4.93 µM
AUC [10, 15]: 0.957
IC50 [10, 15]: > 10 µM
AUC [11]: 0.822
IC50 [11]: 1.26 µM

AMO-1 (haematopoietic neoplasm, suspension)
AUC [1]: 0.511
IC50 [1]: 1.07 µM
AUC [2]: 0.963
IC50 [2]: > 5.12 µM
AUC [3]: 0.715
IC50 [3]: 2.29 µM
AUC [4]: 0.986
IC50 [4]: > 5.12 µM
AUC [5]: 0.924
IC50 [5]: > 8 µM
AUC [6, 12]: 0.724
IC50 [6, 12]: 0.97 µM
AUC [6, 13]: 0.823
IC50 [6, 13]: 2.47 µM
AUC [7]: 0.991
IC50 [7]: > 10 µM
AUC [8]: 0.971
IC50 [8]: > 20 µM
AUC [9]: 0.952
IC50 [9]: > 2 µM
AUC [10, 14]: 0.991
IC50 [10, 14]: > 5 µM
AUC [10, 15]: 0.99
IC50 [10, 15]: > 10 µM
AUC [11]: 0.991
IC50 [11]: > 2 µM

ATN-1 (T-cell lymphoblastic leukaemia, suspension)
AUC [1]: 0.42
IC50 [1]: 0.615 µM
AUC [2]: 0.819
IC50 [2]: 2.67 µM
AUC [3]: 0.666
IC50 [3]: 1.75 µM
AUC [4]: 0.972
IC50 [4]: > 5.12 µM
AUC [5]: 0.919
IC50 [5]: > 8 µM
AUC [6, 12]: 0.737
IC50 [6, 12]: 1.12 µM
AUC [6, 13]: 0.455
IC50 [6, 13]: 0.243 µM
AUC [7]: 0.988
IC50 [7]: > 10 µM
AUC [8]: 0.98
IC50 [8]: > 20 µM
AUC [9]: 0.94
IC50 [9]: > 2 µM
AUC [10, 14]: 0.966
IC50 [10, 14]: > 5 µM
AUC [11]: 0.729
IC50 [11]: 0.533 µM

BE-13 (lymphoblastic leukaemia, suspension)
AUC [1]: 0.435
IC50 [1]: 0.673 µM
AUC [2]: 0.91
IC50 [2]: > 5.12 µM
AUC [3]: 0.465
IC50 [3]: 0.504 µM
AUC [4]: 0.869
IC50 [4]: 4.23 µM
AUC [5]: 0.959
IC50 [5]: > 8 µM
AUC [6, 12]: 0.923
IC50 [6, 12]: > 4 µM
AUC [6, 13]: 0.906
IC50 [6, 13]: > 5.12 µM
AUC [7]: 0.987
IC50 [7]: > 10 µM
AUC [8]: 0.964
IC50 [8]: > 20 µM
AUC [9]: 0.983
IC50 [9]: > 2 µM
AUC [10, 14]: 0.946
IC50 [10, 14]: > 5 µM
AUC [10, 15]: 0.97
IC50 [10, 15]: > 10 µM
AUC [11]: 0.935
IC50 [11]: > 2 µM

BL-41 (Burkitt lymphoma, suspension)
AUC [1]: 0.418
IC50 [1]: 0.629 µM
AUC [2]: 0.847
IC50 [2]: 2.51 µM
AUC [3]: 0.654
IC50 [3]: 1.5 µM
AUC [4]: 0.645
IC50 [4]: 0.728 µM
AUC [5]: 0.839
IC50 [5]: 3.71 µM
AUC [6, 12]: 0.992
IC50 [6, 12]: > 4 µM
AUC [6, 13]: 0.897
IC50 [6, 13]: 3.68 µM
AUC [7]: 0.989
IC50 [7]: > 10 µM
AUC [8]: 0.911
IC50 [8]: 16.4 µM
AUC [9]: 0.994
IC50 [9]: > 2 µM
AUC [10, 14]: 0.994
IC50 [10, 14]: > 5 µM
AUC [10, 15]: 0.994
IC50 [10, 15]: > 10 µM
AUC [11]: 0.975
IC50 [11]: > 2 µM
